Experimental data reported in US9249147B2, “Tyrosine kinase inhibitors” (CHEMBRIDGE CORPORATION, priority 2008, dated 2016).
Values joined by “and” are separate entries in the source; they are usually repeats but may differ in a detail not shown here. Equal entries are not always repeated.

How the values were obtained:
CYP3A4 = biological target: T1, CYP3A4 (Homo sapiens, UniProt P08684); assay: CYP3A4 Inhibition (recombinant, BFC substrate); type: in vitro ADME; settings: human, recombinant CYP3A4, probe BFC, Table 5B individual results, read-out: CYP3A4 % Inhibition of Control Values, 1st/2nd/3rd
T1 construct: purchased Cerep (contract assay, ADMET Study 13170)

HepG2 = assay: Cytotoxicity panel in HepG2 (Cerep ADMET study 13170); type: cell-based, human; settings: for Membrane permeability % Effect (relative to controls), Mean / Mitochondrial Membrane Potential % Effect (relative to controls), Mean / Nuclear size % Effect (relative to controls), Mean / Membrane permeability % Effect (relative to controls), 1st/2nd/3rd / Mitochondrial Membrane Potential % Effect (relative to controls), 1st/2nd/3rd / Nuclear size % Effect (relative to controls), 1st/2nd/3rd / Cell Number % Effect (relative to controls), 1st/2nd/3rd: HepG2; for Membrane permeability % Effect (relative to controls), Mean: % increase; for Mitochondrial Membrane Potential % Effect (relative to controls), Mean / Nuclear size % Effect (relative to controls), Mean / Cell Number % Effect (relative to controls), Mean: % inhibition; for Membrane permeability % Effect (relative to controls), 1st/2nd/3rd / Mitochondrial Membrane Potential % Effect (relative to controls), 1st/2nd/3rd / Nuclear size % Effect (relative to controls), 1st/2nd/3rd / Cell Number % Effect (relative to controls), 1st/2nd/3rd: individual replicates, listed as CRL241; for Cell Number % Effect (relative to controls), Mean: HepG2, 72 hours
Experimental: In addition to the above proliferation inhibition experiments, compound (II) was tested for cytotoxicity at Cerep (ADMET study 13170) with human hepatocellular carcinoma cell line HepG2. Several cellular parameters, such as nuclear size, mitochondrial membrane potential, intracellular free calcium, membrane permeability and cell numbers were measured during this study to evaluate cytotoxicity at 0.5, 5 and 20 μM compound concentrations.
Raw data will be expressed as % of effect (either inhibition or increase) relative to the untreated control cells. The data will also be normalized using the reference compound (cerivastatin), whose maximum effect will be considered “100% effect.” The reference compound will also be used to define the top and bottom of the dose-response curve, if one is calculated. […] The results include the following end points:
Nuclear Size: expressed as % inhibition relative to control values.
Mitochondrial Membrance Potential: expressed as % inhibition relative to control values.
Intracellular Free Calcium: expressed as % increase relative to control values.
Membrance permeability: expressed as % increase relative to control values.
Cell Numbers: expressed as % inhibition relative to control values.

CYP2C19 = biological target: T2, CYP2C19 (Homo sapiens, UniProt P33261); assay: CYP2C19 Inhibition (recombinant, CEC substrate); type: in vitro ADME; settings: human, recombinant CYP2C19, probe CEC, Table 5B individual results, read-out: CYP2C19 % Inhibition of Control Values, 1st/2nd/3rd
T2 construct: purchased Cerep (contract assay, ADMET Study 13170)

hERG = hERG (Homo sapiens, UniProt Q12809); assay: hERG Qpatch 16 automated whole-cell patch clamp in CHO-K1 (Cerep hERG Study 13292); type: cell-based; settings: listed as CRL-241; for % Inhibition of Tail current, individual data: 1st/2nd (Table 6D also 3rd)
Experimental: The cardiac potassium channel, hERG, is responsible for the rapid delayed rectifier current (IKr) in the human ventricle. Inhibition of IKr is the most common cause of cardiac action potential prolongation by noncardiac drugs. Increased action potential duration causes prolongation of the QT interval that has been associated with a dangerous ventricular arrhythmia, torsade de pointer.
Compound (II) was initially tested at 1 μM concentration using a standard patch clamp protocol (Cerep ADMET Study 13170). The hERG channel was expressed in a human embryonic kidney (HEK293) cell line that lacks endogenous hERG channels. […] We have retested compound (II) in hERG assay in a range of lower concentrations to estimate IC50 of hERG inhibition more precisely (Qpatch 16 automated whole-cell patch clamp protocol in CHO-K1 cell line stably expressing hERG, Cerep hERG Study 13292). […] This kind of potency in hERG inhibition should not represent a significant clinical problem since the high degree of hERG inhibition would occur only at the compound concentrations above the expected therapeutic levels.

UniProt Q12809, sequence (Q12809 whole entry): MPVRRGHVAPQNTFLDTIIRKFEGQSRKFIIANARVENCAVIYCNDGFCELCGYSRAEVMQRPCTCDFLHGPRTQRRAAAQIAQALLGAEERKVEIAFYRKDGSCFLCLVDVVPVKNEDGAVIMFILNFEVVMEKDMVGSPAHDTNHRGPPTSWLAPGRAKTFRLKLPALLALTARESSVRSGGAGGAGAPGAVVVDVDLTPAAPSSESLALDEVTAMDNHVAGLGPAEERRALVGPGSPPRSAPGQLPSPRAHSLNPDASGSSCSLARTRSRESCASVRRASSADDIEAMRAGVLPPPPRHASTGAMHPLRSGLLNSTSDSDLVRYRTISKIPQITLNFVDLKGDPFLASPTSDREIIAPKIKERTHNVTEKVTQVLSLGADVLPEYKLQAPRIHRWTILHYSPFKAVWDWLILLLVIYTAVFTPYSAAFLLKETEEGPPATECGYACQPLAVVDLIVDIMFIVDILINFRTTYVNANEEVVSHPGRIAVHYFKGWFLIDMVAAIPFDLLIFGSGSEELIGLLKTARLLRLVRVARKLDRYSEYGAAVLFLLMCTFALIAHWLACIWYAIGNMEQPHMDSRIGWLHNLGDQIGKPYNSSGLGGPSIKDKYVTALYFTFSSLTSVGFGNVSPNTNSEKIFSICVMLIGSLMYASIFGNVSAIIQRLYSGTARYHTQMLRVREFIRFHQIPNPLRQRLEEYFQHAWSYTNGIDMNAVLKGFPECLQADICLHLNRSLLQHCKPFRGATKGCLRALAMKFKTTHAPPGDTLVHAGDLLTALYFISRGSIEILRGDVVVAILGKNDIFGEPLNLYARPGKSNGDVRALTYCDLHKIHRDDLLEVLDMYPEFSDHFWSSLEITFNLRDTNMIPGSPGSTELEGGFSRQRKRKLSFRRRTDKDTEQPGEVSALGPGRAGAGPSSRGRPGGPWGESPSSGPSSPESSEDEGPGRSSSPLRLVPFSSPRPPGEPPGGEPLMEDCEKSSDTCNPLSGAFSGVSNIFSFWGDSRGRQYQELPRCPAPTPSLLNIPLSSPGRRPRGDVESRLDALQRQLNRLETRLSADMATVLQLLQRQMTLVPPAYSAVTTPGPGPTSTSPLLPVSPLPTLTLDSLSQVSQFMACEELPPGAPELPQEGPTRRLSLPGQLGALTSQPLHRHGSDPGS
T2 sequence (P33261 whole entry): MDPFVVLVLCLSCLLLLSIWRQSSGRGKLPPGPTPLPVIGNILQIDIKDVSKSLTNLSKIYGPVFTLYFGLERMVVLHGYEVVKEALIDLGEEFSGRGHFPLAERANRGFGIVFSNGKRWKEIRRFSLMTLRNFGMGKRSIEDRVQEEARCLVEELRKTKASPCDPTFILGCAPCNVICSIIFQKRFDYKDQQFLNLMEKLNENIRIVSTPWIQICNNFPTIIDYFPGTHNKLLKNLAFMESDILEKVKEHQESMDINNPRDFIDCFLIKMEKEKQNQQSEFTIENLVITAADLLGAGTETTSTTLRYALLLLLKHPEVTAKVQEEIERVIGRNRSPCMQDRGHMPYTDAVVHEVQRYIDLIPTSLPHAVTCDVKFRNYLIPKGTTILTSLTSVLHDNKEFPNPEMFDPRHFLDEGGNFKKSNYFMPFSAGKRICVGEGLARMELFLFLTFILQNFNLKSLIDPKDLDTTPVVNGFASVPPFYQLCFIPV
T1 sequence (P08684 whole entry): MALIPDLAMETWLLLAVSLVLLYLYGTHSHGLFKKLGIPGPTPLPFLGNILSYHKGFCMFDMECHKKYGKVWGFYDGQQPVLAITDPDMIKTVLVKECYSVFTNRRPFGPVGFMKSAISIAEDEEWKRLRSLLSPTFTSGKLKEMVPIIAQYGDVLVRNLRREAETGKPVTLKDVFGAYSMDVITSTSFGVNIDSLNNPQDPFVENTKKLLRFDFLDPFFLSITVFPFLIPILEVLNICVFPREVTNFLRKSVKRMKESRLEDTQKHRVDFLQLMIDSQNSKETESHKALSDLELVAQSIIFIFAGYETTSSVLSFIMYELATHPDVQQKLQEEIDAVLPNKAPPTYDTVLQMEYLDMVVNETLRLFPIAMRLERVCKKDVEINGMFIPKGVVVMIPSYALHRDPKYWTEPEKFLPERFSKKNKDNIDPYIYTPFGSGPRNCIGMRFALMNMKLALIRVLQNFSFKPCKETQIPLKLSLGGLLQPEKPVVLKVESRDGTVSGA

Compound: Cc1ccc(F)cc1C[C@H](C)Nc1cc[nH]c(=O)c1-c1nc2cc3c(cc2[nH]1)C(=O)N(CCN1CCCC1)C3 [compound (II)]
- activity at 1 µM (CYP3A4; 1.0E−06 M): 53.7%
- activity at 5 µM (CYP3A4; 5.0E−06 M): 4.6%
- Membrane permeability % Effect (relative to controls), Mean (HepG2; 2.0E−05 M): 145%
- Mitochondrial Membrane Potential % Effect (relative to controls), Mean (HepG2; 2.0E−05 M): 101%
- Nuclear size % Effect (relative to controls), Mean (HepG2; 2.0E−05 M): 55%
- Membrane permeability % Effect (relative to controls), 1st/2nd/3rd (HepG2; 2.0E−05 M): 151.4% and 149.2% and 134.1%
- Mitochondrial Membrane Potential % Effect (relative to controls), 1st/2nd/3rd (HepG2; 2.0E−05 M): 100.5% (2×) and 100.6%
- Nuclear size % Effect (relative to controls), 1st/2nd/3rd (HepG2; 2.0E−05 M): 55.6% and 54.2% and 55.9%
- Cell Number % Effect (relative to controls), Mean (HepG2; 5.0E−06 M): 72%
- Membrane permeability % Effect (relative to controls), Mean (HepG2; 5.0E−06 M): 205%
- Mitochondrial Membrane Potential % Effect (relative to controls), Mean (HepG2; 5.0E−06 M): 100%
- Nuclear size % Effect (relative to controls), Mean (HepG2; 5.0E−06 M): 91%
- Cell Number % Effect (relative to controls), 1st/2nd/3rd (HepG2; 5.0E−06 M): 68.1% and 72.2% and 74.5%
- Membrane permeability % Effect (relative to controls), 1st/2nd/3rd (HepG2; 5.0E−06 M): 203.0% and 221.0% and 191.2%
- Mitochondrial Membrane Potential % Effect (relative to controls), 1st/2nd/3rd (HepG2; 5.0E−06 M): 100.1% (2×) and 100.5%
- Nuclear size % Effect (relative to controls), 1st/2nd/3rd (HepG2; 5.0E−06 M): 91.7% (2×) and 88.6%
- Cell Number % Effect (relative to controls), Mean (HepG2; 5.0E−07 M): −7%
- Membrane permeability % Effect (relative to controls), Mean (HepG2; 5.0E−07 M): 1%
- Mitochondrial Membrane Potential % Effect (relative to controls), Mean (HepG2; 5.0E−07 M): 9%
- Cell Number % Effect (relative to controls), 1st/2nd/3rd (HepG2; 5.0E−07 M): 3.6% and −13.2% and −10.9%
- Membrane permeability % Effect (relative to controls), 1st/2nd/3rd (HepG2; 5.0E−07 M): 2.0% and 1.5% and 0.7%
- activity at 1 µM (CYP2C19; 1.0E−06 M): 19.5%
- activity at 5 µM (CYP2C19; 5.0E−06 M): 9.5%
- % Inhibition of Tail current (mean) (hERG; 1.0E−07 M (100 nM), CHO-K1, automated patch clamp): 28.0%
- % Inhibition of Tail current, individual data (hERG; 1.0E−07 M): 28.1% and 27.9% and 28.0%
- % Inhibition of Tail current, individual data (hERG; 2.5E−08 M): 24.5% and 20.6% and 22.5%
- % Inhibition of Tail current, individual data (hERG; 5.0E−07 M): 40.3% and 36.6% and 38.5%
